# Hit rate of the full screen: of about 44,000 compounds, about 340 (0.77%) were called active. Not shown: some 5% with an inconclusive outcome. Calls follow the shape of the dose curve; as a rule, active = well fitted inhibition curve with a large enough effect; inconclusive = small, poorly fitted or top-dose-only effect; inactive = flat fitted curve, though single readings scatter. The list shows a part of the results.
# Assay: Acumen qHTS Assay for Inhibitors of the mTORC1 Signaling Pathway in MEF (Tsc2-/-, p53-/-) Cells: Sytravon;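 also: plate controls were DMSO for no effect and rapamycin for full effect; nearly all actives have a fitted effect of over 50% in size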
# Details: phospho-rpS6 immunofluorescence/PI, 24 h; series mostly up to 38.3 µM; activity change, negative = inhibition: at the top concentration
# How it was run: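 Tsc2-/-, p53-/- mouse embryonic fibroblasts (empty-vector line) exposed to compound 24 hrs at 37 C, fixed, immunostained for phospho-rpS6 and counterstained with propidium iodide. Acumen laser scanning gives % positive cells from Alexa 488/PI ratio, thresholded using 7.5 nM rapamycin; PI count gives viability.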
row,SMILES,"activity change, negative = inhibition"
1,N#Cc1cccc(NC(=O)C2CCN(c3nc(-c4ccc(Cl)cc4)no3)CC2)c1,inactive: 0%
2,CCOc1ccc(-c2nnc(SCC(=O)Nc3cc(C)ccc3OC)o2)cc1,inactive: -19%
3,CC(C)c1ccc(NC(=O)Cn2c3ncccc3c(=O)n2-c2ccccc2)cc1,inactive: 0.913%
4,Cc1ccccc1NC(=O)C1CCN(S(=O)(=O)c2c(C)noc2/C=C/c2ccco2)CC1,inactive: 7.34%
5,COc1ccc(C(=O)NCc2ccc3c(c2)CCN3C(C)=O)c(OC)c1,inactive: -3.86%
6,CCC(=O)N1CCc2cc(CNC(=O)c3cccc(N(C)C)c3)ccc21,inactive: -0.183%
7,COc1ccc(NC(=O)C2CCCN(c3ncnc4onc(C)c34)C2)cc1OC (stereo not given),inactive: 0.0765%
8,CCC(=O)OC1=C(C(C)=O)N(Cc2ccccc2)S(=O)(=O)c2ccccc21,inactive: -0.138%
9,Cc1ccc(Cn2c(SCc3ccc(C(=O)N4CCCCC4)cc3)nc3ccncc32)cc1,inactive: -12.3%
10,CCc1ccccc1N1C(=O)CN(S(=O)(=O)CC)CC1(C)C(=O)NC1CCCCC1 (stereo not given),inactive: -0.463%
11,Cc1ccc(-c2c3c(=O)n(C)c(=O)n(C)c3c3n2-c2ccccc2NC3c2ccc(C)cc2O)cc1 (stereo not given),inactive: -13.4%
12,CCOc1ccc(OCC)c(NC(=O)c2nnn(CC(=O)Nc3cc(Cl)ccc3OC)c2N)c1,inactive: -17.1%
13,COc1ccc(-c2cc(C(=O)N3CCCCC3C)no2)cc1OC (stereo not given),inactive: 3.4%
14,O=C(COc1ccccc1)Nc1nnc(S(=O)(=O)Nc2ccccc2)s1,inactive: -13.2%
15,Cc1ccc(Cl)cc1N1CCN(S(=O)(=O)c2cn(C)c(C)n2)CC1,inactive: 1.05%
16,CCOc1ccccc1C1C(C(=O)Nc2ccccc2)=C(C)Nc2nc(SCC(=O)c3ccc(C)cc3)nn21 (stereo not given),inactive: -2.8%
17,CC1CCCCN1CCCNC(=O)CN1C(=O)c2cccnc2Oc2ccc(Cl)cc21 (stereo not given),inactive: 0.989%
18,COc1ccc(C(=O)c2sc3nc4c(c(C(F)(F)F)c3c2N)CN(C(C)=O)CC4)cc1OC,inactive: 2.1%
19,CN(C(=O)CSc1nc(-c2ccccc2)no1)c1ccc(F)cc1,inactive: -3.63%
20,CCOc1ccccc1NC(=O)Nc1nnc(N2CCCC(C)C2)s1 (stereo not given),inactive: -7.07%
21,O=C(c1ccc(Cl)cc1)N1CCN(CCc2ccncc2)CC1,inactive: -12.1%
22,CCN(Cc1ccccc1)c1ncnc2c1cnn2-c1ccc(F)cc1,inactive: 8.69%
23,CCOc1ccc(CNC(=O)C2CCN(C(=O)c3ccc(-n4ccc5ccccc54)s3)CC2)cc1,inactive: -2.67%
24,Cc1cccc(NC(=O)Cn2c(=O)n(CCCCCC(=O)NCc3ccccc3)c(=O)c3sccc32)c1,inactive: -28.4%

row,SMILES,"activity change, negative = inhibition"
1,CCOc1ccc(Nc2cc(C(=O)NCc3ccccc3Cl)c3ccccc3n2)cc1,inactive: -10.3%
2,CCOC(=O)N1CCN(C(=O)c2ccc3c(c2)N(Cc2ccccc2F)C(=O)c2ccccc2S3(=O)=O)CC1,inactive: 0.0918%
3,CCc1ccc(NC(=O)CSc2nc3c(c(=O)[nH]2)CN(Cc2ccc4c(c2)OCO4)CC3)cc1,inactive: 2.73%
4,O=C(COc1ccccc1)NCC(c1ccc(Cl)cc1)N1CCCCC1 (stereo not given),inactive: -27.2%
5,O=C(CCCc1ccccc1)NC1CC(=O)N(c2cccc(F)c2)C1 (stereo not given),inactive: 2.69%
6,Cc1ccc(C)c(N2CCN(S(=O)(=O)c3c(C(=O)N4CCC(C)CC4)c(C)n(C)c3C)CC2)c1,inactive: 0%
7,O=C(Nc1ccc(Br)c(Cl)c1)c1ccc(C(=O)Nc2ccc(Br)c(Cl)c2)cc1,inactive: -5.79%
8,COc1ccccc1CNC(=O)C(=O)NCC(c1ccco1)S(=O)(=O)c1ccc(C)cc1 (stereo not given),inactive: 2.99%
9,COC(=O)C1=C(C)N(C(C)C)C(=O)C1(NC(=O)c1ccccc1OC)C(F)(F)F (stereo not given),inactive: -3.77%
10,CCCCCn1c(CCCNC(=O)c2ccc(Cl)cc2)nc2ccccc21,inactive: -2.33%
11,COc1ccc(-c2nc(C(=O)Nc3cccc(C(C)=O)c3)nn2-c2ccccc2Cl)cc1,inactive: -1.16%
12,COc1ccc(CNC(=O)CCc2nnc3n(C)c(=O)c4sccc4n23)cc1,inactive: 13%
13,O=C(NCc1ccccc1Cl)c1ccccc1NC(=O)c1nsc2ccccc12,inactive: 0.394%
14,COc1cc(OC)c(NC(=O)c2cnn(-c3ccccc3)c2-n2cccc2)cc1Cl,inactive: -7.32%
15,CCOc1cc(-c2nc(-c3ccc(-c4ccccc4)nc3OCC)no2)cc(OCC)c1OCC,inactive: 1.26%
16,COCCCNC(=O)c1cc2c(-c3cccc(OC)c3)nn(C)c2s1,inactive: -15.9%
17,O=C(CSc1nccn1Cc1ccc(Cl)cc1)Nc1nc2ccccc2s1,inactive: -19.9%
18,COc1ccc(N2CCN(C(=O)c3cc4c(=O)n(Cc5ccco5)ccc4nc3C)CC2)cc1,inactive: -0.615%
19,Cc1ccccc1CCNC(=O)c1ccc(Cn2c(=O)c3cccn3c3cccnc32)cc1,inactive: -14.1%
20,CCc1ccc(NC(=O)c2cc(S(=O)(=O)N3CCCC(C)C3)cn2C)cc1 (stereo not given),inactive: 0%
21,Cc1ccc(C)c(N2CCN(C(=O)c3cc(C)nc4c3c(C)nn4-c3ccccc3)CC2)c1,inactive: -0.86%
22,COc1cc(NC(=O)CCN2CCN(CCO)CC2)cc(OC)c1,inactive: 1.93%
23,COc1cc(CN(C(=O)COc2ccc(F)cc2)c2ccccn2)cc(OC)c1OC,inactive: -1.13%
24,CCOc1ccc(OCC(=O)Nc2ccc(S(=O)(=O)Nc3cc(C)on3)cc2)cc1,inactive: 13%

row,SMILES,"activity change, negative = inhibition"
1,CCCc1cc(=O)n2[nH]c(NCc3c(F)cccc3Cl)nc2n1,inactive: -1.01%
2,CCc1nn(CC(=O)NCCc2ccc(SC)cc2)c(=O)c2cc3sccc3n12,inactive: -3.1%
3,Cc1nc2cc(-c3cccc(F)c3)nn2c(C)c1CCC(=O)NCCc1ccccc1,inactive: 4.38%
4,COc1ccc(N2CCN(S(=O)(=O)c3ccc4c(c3)C(C(C)C)C(=O)N4)CC2)cc1 (stereo not given),inactive: -12%
5,Cn1c(=O)c2sccc2n2c(CCCC(=O)Nc3ccc(Oc4ccccc4)cc3)nnc12,inactive: 2.65%
6,CCOC(=O)COc1ccc(-c2nnn(CC(=O)Nc3ccccc3)n2)cc1,inactive: -14.8%
7,Cc1ccc(NC(=O)c2ccc(=O)n(CC(=O)Nc3ccccc3)n2)cc1,inactive: -4.72%
8,Cc1ccc(C)c(NC(=O)C2CCN(S(=O)(=O)c3c(C)noc3/C=C/c3cccs3)CC2)c1,inactive: -3.24%
9,Cc1sc2c(c1C)c(=O)n(CCc1ccccc1)c(=O)n2Cc1ccc(C(C)(C)C)cc1,inactive: -2.36%
10,CCn1c(CNC(=O)c2ccc(OC)cc2)nnc1SCC(=O)Nc1cc(C)ccc1C,inactive: 3.57%
11,CCc1cccc(NS(=O)(=O)c2ccc3c(c2)CC(C)N3C(=O)C2CC2)c1 (stereo not given),inactive: -7.48%
12,CCc1c(C)c2ccc(O)c(CN3CCN(c4ccc(F)cc4)CC3)c2oc1=O,inactive: -0.781%
13,COc1ccccc1C(=O)NCc1nc2cccnc2n1Cc1ccc(F)cc1,inactive: -3.4%
14,COc1ccc(Cl)cc1NC(=O)CSc1nccn1-c1ccc(Cl)cc1,inactive: 0.548%
15,CCOCN(C(=O)Cn1c(COC)nc2ccccc21)c1c(C)cccc1CC,inactive: -5.64%
16,COc1ccc(S(=O)(=O)N2Cc3ccccc3CC2C(=O)Nc2cc(Cl)ccc2Cl)cc1 (stereo not given),inactive: 0.0288%
17,COc1ccc(C(=O)NCCn2cc(SCc3ccc(C(F)(F)F)cc3)c3ccccc32)cc1OC,inactive: -1.54%
18,Cc1cccc(NC(=O)CSC2=Nc3ccccc3C3=NC(CC(=O)NCc4cccs4)C(=O)N23)c1 (stereo not given),inactive: -5.53%
19,COc1cccc(CNC(=O)C2CCCN(S(=O)(=O)N(C)c3ccc(F)cc3)C2)c1OC (stereo not given),inactive: -23.6%
20,COc1ccc(CNC(=O)CCCn2nc(C)n3c(cc4sccc43)c2=O)cc1,inactive: 1.91%
21,COCCn1c(C)cc(O)c(C(c2ccccc2OC)N2CCN(c3ccccc3)CC2)c1=O (stereo not given),inactive: 1.34%
22,Cc1ccc(NC(=O)CN2C=NS(=O)(=O)c3ccccc32)cc1,inactive: -2.11%
23,COc1ccc(-c2noc(CC(=O)N(C)c3cccc(C)c3)n2)cc1,inactive: 3.74%
24,CCOC(=O)COc1ccc(CC)cc1C(=O)c1ccn2nc(-c3ccc(F)cc3)cc2n1,inactive: 5.05%

row,SMILES,"activity change, negative = inhibition"
1,CCOC(=O)c1cnc2ccc(Br)cc2c1NCCN1CCOCC1,inactive: -1.04%
2,COc1ccc(C(=O)c2cn(Cc3ccccc3F)c3cc4c(cc3c2=O)OCCO4)cc1OC,inactive: 6.65%
3,O=C(Nc1ccc2c(c1)CCCN2C(=O)c1cccs1)c1ccc(F)c(F)c1,inactive: 0%
4,Cc1ccc(N2CC(NC(=O)c3ccccc3C(F)(F)F)CC2=O)cc1C (stereo not given),inactive: -1.21%
5,COc1ccc(Cl)cc1S(=O)(=O)Nc1ccc2[nH]c(=O)[nH]c2c1,inactive: 2.23%
6,Clc1ccc2c(c1)-n1cc(-c3ccccc3)nc1CO2,inactive: -10.5%
7,CCc1ccc(S(=O)(=O)c2cn(Cc3ccccc3)c3cc(N4CCCC4)c(F)cc3c2=O)cc1,inactive: 4.11%
8,Cc1ccc(Cl)cc1N1CCN(C(=O)CCS(=O)(=O)c2cc(Br)cc3c2N(C(=O)C2CC2)CC3)CC1,inactive: -23.7%
9,COc1ccc(NC(=O)CSc2oc(-c3cccs3)nc2S(=O)(=O)c2ccccc2)c(OC)c1,inactive: -5.97%
10,Cc1cccc(CNC(=O)c2cc3cc(S(=O)(=O)N4CCCCC4)ccc3n2C)c1,inactive: 4.5%
11,Cc1ccc(CCNC(=O)Cn2c(-c3cccs3)cc3ccccc32)cc1,inactive: -13.6%
12,CC(C)(C)C1CCc2c(sc(NC(=O)c3cccc(Cl)c3)c2C(=O)NCc2ccco2)C1 (stereo not given),inactive: -12.6%
13,CC(=O)c1ccc(NC(=O)C2CCN(c3nnc(C)c4c(C)n(-c5ccccc5)nc34)CC2)cc1,inactive: -3.51%
14,Cc1ccc(-c2cc(C(=O)N3CCN(S(=O)(=O)c4ccc(Br)cc4)CC3)[nH]n2)c(C)c1,inactive: -7.36%
15,CC(C)OCCCn1c(=O)c2ccccc2n2c(-c3ccccc3)nnc12,inactive: -2.31%
16,O=C(Cc1ccccc1)Nc1sc2c(c1C(=O)Nc1cccc(Cl)c1)CCCCC2,inactive: 3.58%
17,CCc1nn2c(=O)cc(COC(=O)Cc3ccccc3)nc2s1,inactive: 2.76%
18,COc1ccc(NCc2cccn2-c2nnc(N3CCCCCC3)s2)cc1,inactive: -14%
19,CC(C)CCOc1ccc(Cn2c(=O)oc3ccccc32)cc1,inactive: -5.55%
20,Cc1ccc(S(=O)(=O)c2cn(Cc3ccccc3)c3cc(N4CCCCC4)c(F)cc3c2=O)cc1,inactive: -5.3%
21,O=C(NCc1ccco1)c1ccc(Cn2c(SCc3ccccc3)nc3cccnc32)cc1,inactive: 1.25%
22,COc1cc(OC)c(NC(=O)CCS(=O)(=O)c2ccc3c(c2)oc(=O)n3C)cc1Cl,inactive: -9.81%
23,COc1ccc(NC(=O)CSC2=Nc3ccccc3C3=NC(CC(=O)NCCc4ccccc4)C(=O)N23)cc1 (stereo not given),inactive: 3.1%
